Variants at the background level are over-represented here.
B1: TPR 5TU (parent)
chain: GGAUCUUCUCGAUCUAACAAAAAAGACAAAUCUGCCACAAAGCUUGAGAGCAUCUUCGGAUGCAGAGGCGGCAGCCUUCGGUGGCGCGAUAGCGCCAACGUUCUCAACUAUGACACGCAAAACGCGUGCUCCGUUGAAUGGAGUUUAUCAUG

Variants of: B1
Assay: polymerase ribozyme fitness, log enrichment relative to wild type (log ratio); higher = more active; in vitro selection for triplet polymerase activity
Outline: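 Libraries of mutants in each subunit of a heterodimeric triplet polymerase ribozyme were generated by PCR and transcribed. In triplicate, each went through one in vitro selection round: annealing with biotinylated primer, partner subunit and triplets; frozen incubation at −7 °C; gel excision of extended constructs; streptavidin-bead capture; RT-PCR. Fitness, taken from Illumina sequencing of input and output libraries, is the logarithm of a genotype's enrichment over wild-type enrichment, averaged across replicates with inverse-variance weights. The logarithm is base 2, and genotypes needed ≥10 input reads and ≥1 read per output to be kept.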

| Variant | polymerase ribozyme fitness (log ratio) |
| --- | --- |
| GGAUCUUCUCGAUCUAACAAAAAAGUCAAAUCUGCCACAAAGCUUGAGAGCAUCUUCGGAUGCAGAGGCGGCAACCUUCGGUGACGCGAUAGCGCCAACGUUCUCAACCAUGACACGCAAAACGGGUGCUCCGUUGAAUGCAGUUUAUCAUG [A26U G74A G84A U109C C125G G141C] | ≤ -4.2 |
| GGAUCUUCUCGAUCUAACAAAAAAGUCAAAUCUGCCACAAAGCUUGAGAGCAUCUUCGGAUGCAGAGGCGGCAUCCUUCGGUGACGCGAUAGCGCCAACGUUCUCAACUAUGACACGCAAAACGCGUGCUCCGUUGAAUGCAGUUUAUCAUG [A26U G74U G84A G141C] | ≤ -4.2 |
| GGAUCUUCUCGAUCUAACAAAAAAGUCAAAUCUGCCACAAAGCUUGAGAGCAUCUUCGGAUGCAGAGGCGGCAGCCUUCAGUGGCGCGGUAGCGCCAACGUUCUCAACUAUGACACUCAAAACGCGUGCUCCGUUGAAUGGAGUUUAUCAUG [A26U G80A A89G G117U] | ≤ -4.2 |
| GGAUCUUCUCGAUCUAACAAAAAAGUCAAAUCUGCCACAAAGCUUGAGAGCAUCUUCGGAUGCAGAGGCGGCAGCCUUCGAUGGCGCGAUUGCGCGAACGUUCUCAACUAUGACACGCAAAACGCAUGCUCCGUUGAAUGGAGUUUAUCAUG [A26U G81A A91U C96G G126A] | ≤ -4.2 |
| GGAUCUUCUCGAUCUAACAAAAAAGUCAAAUCUGCCACAAAGCUUGAGAGCAUCUUCGGAUGCAGAGGCGGCAGCCUUCGGUUGCGCGAUAGCGGCAACGUUCUAAACUAUGACACGCAAAACGCGUGCUCCGUUGAAUGAAGUUCAUCACG [A26U G83U C95G C105A G141A U146C U151C] | ≤ -4.2 |
| GGAUCUUCUCGAUCUAACAAAAAAGUCAAAUCUGCCACAAAGCUUGAGAGCAUCUUCGGAUGCAGAGGCGGCAGCCUUCGGUGCCGCGAUAGCGCCAACGUUCUCAACUAUGACACGCAAAACGCGUGCUCCGUUGAAUGGAGUGUAUCAUG [A26U G84C U145G] | ≤ -4.2 |
| GGAUCUUCUCGAUCUAACAAAAAAGUCAAAUCUGCCACAAAGCUUGAGAGCAUCUUCGGAUGCAGAGGCGGCAGCCUUCGGUGGCUCGAUAGCGCCAACGUUCUCAACUAUGACACGCAAAACGCGUGCUCCGUUGAAUGGAGUUUAUCAUG [A26U G86U] | -3.84 |
| GGAUCUUCUCGAUCUAACAAAAAAGUCAAAUCUGCCACAAAGCUUGAGAGCAUCUUCGGAUGCAGAGGCGGCAGCCUUCGGUGGCGCGAUAACGCCAACGUUCUCAACUAUGACACGCAAAACGCGUGCUCCGUUGAAUGGAGUUUAUCAUG [A26U G92A] | -3.86 |
| GGAUCUUCUCGAUCUAACAAAAAAGUCAAAUCUGCCACAAAGCUUGAGAGCAUCUUCGGAUGCAGAGGCGGCAGCCUUCGGUGGCGCGAUAGCCCCAACGUUCUCAACUAUGACACGCAAAACGCGUGCUCCGUUGAAUGGAGUUUAUCAUG [A26U G94C] | -2.1 |
| GGAUCUUCUCGAUCUAACAAAAAAGUCAAACCUGCCACAAAGCUUGAGAGCUUCUUCGGAUGCAGAGGCGGCGGCCUUCGGUGGCGAGAUAGCGCCAACGUUCUCAGCUAUGACACGCAAAACGCGUGCUCCGUUGAAUGGAGUUUAUCAUG [A26U U31C A52U A73G C87A A107G] | ≤ -4.2 |
| GGAUCUUCUCGAUCUAACAAAAAAGUCAAACCUGCCACAAAGCUUGAGAGCAUCUUCGGAUGAAGAGGCGGCAGCCUUCGGUCGCGCGAUAGCAUCAUCGUUCUCAACUAUGACACGCAAAACGCGUGCUCCGUUGAAUGGAGUUUAUCAUG [A26U U31C C63A G83C G94A C95U A98U] | ≤ -4.2 |
| GGAUCUUCUCGAUCUAACAAAAAAGUCAAAUCAGCCACAAAGCUUGGGAGCAUCUUCGGAUACAGAGGCGGCAGCCUUCGGUGGCGCGAUAGCUCCAACGUUCUUAACUUUGACACGCAAAACGCGUGCUCCGUUGAAUGGAGUUUAUCAUG [A26U U33A A47G G62A G94U C105U A110U] | ≤ -4.2 |
| GGAUCUUCUCGAUCUAACAAAAAAGUCAAAUCGGCCACAAAGCUAGAGAACAUCUUCGGAUGCAGAGGCGGCAGCCGUCGGUGGUGCGAUAGCGCCAACGUUCUCAACUAUGACACGCACAACGCGCGCUCCGGUGAAUGGAGUUUAUCAUG [A26U U33G U45A G50A U77G C85U A120C U127C U134G] | ≤ -4.2 |
| GGAUCUUCUCGAUCUAACAAAAAAGUCAAAUCUGCCACAAAGCAUAAGAGCAUCUUCGGAUGAAGAGGCGGCAGCCUUCGGUUGCGCGAUAGCGCCAACGUUCUCAACUAUGACACGCAAAACGCGUGCUCCGUUGAAUGGAGUUUAUCAUG [A26U U44A G46A C63A G83U] | ≤ -4.2 |
| GGAUCUUCUCGAUCUAACAAAAAAGUCAAAUCUGCCACAAAGCUUGAGAGCAACUUCGGAUGCAGAGGCGGCAGCCUUCGGUGGCGCGAUAGCGCCAACGUUCUCAACUAUGACACGCAAAACCCGUGCUCCGUUGCUUGGAGUUUAUCAUG [A26U U53A G124C A137C A138U] | ≤ -4.2 |
| GGAUCUUCUCGAUCUAACAAAAAAGUCAAAUCUGCCACAAAGCUUGAGAGCAGCUUCGGAUGCAGAGGCGGCAGCCUUCGGUGGCGCGCUAGCGCCAACGUUUUCAACUAUGACACUCAAAACGCGUGCUCCGUUGAAUGGAGUUUAUCAUG [A26U U53G A89C C103U G117U] | ≤ -4.2 |
| GGAUCUUCUCGAUCUAACAAAAAAGUCAAAUCUGCCACAAAGCUUGAGAGCAGCUUCGGAUGCAGAGGCGGCAGCCUUCGGUGGCGGGAUAGCGCCAACGUUCUCAACUAUGACACGCAAAACGCGUGCUCCGUUGAAUAGAGUUUAUCAUG [A26U U53G C87G G140A] | ≤ -4.2 |
| GGAUCUUCUCGAUCUAACAAAAAAGUCAAAUCUGCCACAAAGCUUGAGAGCAUCAUCCGAUCCAGAGGCGGCAGCCUUCGGUGGCGCGAUAGCGCCAACGUUCUCAACUAUGACACGCUAAACGCGUGCUCCCUUGAAUGGAGUUGAUCAUG [A26U U55A G58C G62C A119U G133C U146G] | ≤ -4.2 |
| GGAUCUUCUCGAUCUAACAAAAAAGUCAAAUCUGCCACAAAGCUUGAGAGCAUCAUCGGAUGCAGAGGCGGCAGCCUUCGGUGGCGCGAUAGCGCCAACGUUCUCAACUAUGACACGCAAAACGCGUGCUCCGUUGAAUGGAUGUUAUCAUG [A26U U55A G143U U144G] | ≤ -4.2 |
